Drawing on the supplement of paper PMC8512760, this text covers cell viability for 26 compounds.

SMILES strings stand for the structures. The list shows a part of the results. Many values rest on one well or one pass, so single values are uncertain.
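Note: stably firefly luciferase-GFP labeled cells in 96-well plates, viability read as luciferase photon flux after d-luciferin addition, treated wells normalized to vehicle wells, single-dose high-throughput screen.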

For the first assay, the system named is HCC-1143. In words: cell viability relative to vehicle (% of vehicle); basal-like triple-negative breast cancer lines; higher = less cytotoxic. The following applies: 10 µM; 72 h.
`Cc1c(F)cc(C(=O)NC2CC2)cc1-c1ccc(C(=O)NCC(C)(C)C)cn1` [Losmapimod]: the cell viability came to 74.4. Compound `CC(S)C(=O)NCC(=O)O` (stereo unspecified) [Tiopronin (Thiola)] returned a cell viability of 81.7. `CC(C)Nc1cc(-c2c[nH]c(C(=O)NC(CO)c3cccc(Cl)c3)c2)c(Cl)cn1` (stereo unspecified) yielded a cell viability of 77.9. The compound `CCCS(=O)(=O)Nc1ccc(F)c(C(=O)c2c[nH]c3ncc(-c4ccc(Cl)cc4)cc23)c1F` [Vemurafenib (PLX4032, RG7204)] showed a cell viability of 91.7.

Consider `CC(C)OC(=O)OCOP(=O)(COC(C)Cn1cnc2c(N)ncnc21)OCOC(=O)OC(C)C.O=C(O)C=CC(=O)O` (stereo unspecified) [Tenofovir Disoproxil Fumarate], for which the cell viability stood at 80.9. On the same count and under the same terms, with `CCC1OC(=O)C(C)C(OC2CC(C)(OC)C(O)C(C)O2)C(C)C(OC2OC(C)CC(N(C)C)C2O)C(C)(OC)CC(C)C(=O)C(C)C(O)C1(C)O` (stereo unspecified) [Clarithromycin] the figure was 92.6. On the same count and under the same terms, with `Cc1c(Cl)cccc1Nc1ccccc1C(=O)O` [Tolfenamic Acid] the figure was 110; with `Cc1cn(C2C=CC(CO)O2)c(=O)[nH]c1=O` (stereo unspecified) [Stavudine (d4T)], 82.4; with `CN1C2CCC1CC(OC(c1ccccc1)c1ccccc1)C2.CS(=O)(=O)O` (stereo unspecified) [Benztropine mesylate], 97.6. `COC(=O)NC(C(=O)NC(Cc1ccccc1)C(O)CN(Cc1ccc(-c2ccccn2)cc1)NC(=O)C(NC(=O)OC)C(C)(C)C)C(C)(C)C.O=S(=O)(O)O` (stereo unspecified) had a cell viability of 108.

Consider `COc1cc2nc(N3CCN(C(=O)C4COc5ccccc5O4)CC3)nc(N)c2cc1OC.CS(=O)(=O)O` (stereo unspecified) [Doxazosin Mesylate], for which the cell viability turned out to be 106. Compound `O=C(c1cc(Cc2n[nH]c(=O)c3ccccc23)ccc1F)N1CCN(C(=O)C2CC2)CC1` had a cell viability of 91.2.

The test system of the next assay is HCC-1187. The assay is described as above. The settings on record: 10 µM; 72 h.
On to `CC(C)C1C(=O)NC(CCCN=C(N)N)C(=O)NCC(=O)NC(CC(=O)O)C(=O)NC(Cc2ccccc2)C(=O)N1C` (stereo unspecified) [Cilengitide], for which the cell viability worked out at 80.9. On the same count and under the same terms, with `CC(O)C(=O)O.CC(O)C(=O)O.CN1CCN(c2ccc3c(c2)NC(=C2C(=O)N=c4cccc(F)c4=C2N)N3)CC1` [Dovitinib Dilactic acid] the figure was 38.3. The same measure, in the same setting: as for `CC1(C)O[C@@H]2C[C@H]3[C@@H]4CCC5=CC(=O)C=C[C@]5(C)[C@H]4[C@@H](O)C[C@]3(C)[C@]2(C(=O)CO)O1` [Desonide], the figure is 94.4. On the same count and under the same terms, as for `CN(C)CC=CC(=O)Nc1cc2c(Nc3ccc(F)c(Cl)c3)ncnc2cc1OC1CCOC1.O=C(O)C=CC(=O)O.O=C(O)C=CC(=O)O` (stereo unspecified) [Afatinib dimaleate], the figure is 22.5; as for `NC(CO)(CO)CO` [Trometamol], 83.3. `CC1=C2N=C(C=C3N=C(C(C)=C4[N-]C(C)(C5N=C1C(C)(CCC(=O)NCC(C)OP(=O)([O-])OC1C(CO)OC(n6cnc7cc(C)c(C)cc76)C1O)C5CC(N)=O)C(C)(CC(N)=O)C4CCC(N)=O)C(C)(CC(N)=O)C3CCC(N)=O)C(C)(C)C2CCC(N)=O.[CH3-].[Co+3]` (stereo unspecified) [Methylcobalamin] yielded a cell viability of 89.4. `O=C1NC([O-])=NC1(c1ccccc1)c1ccccc1.[Na+]` [Phenytoin sodium] showed a cell viability of 97.8. Still for that read-out and setting: as for `CCC(C)C(=O)OC1CC(C)C=C2C=CC(C)C(CCC3CC(O)CC(=O)O3)C21` (stereo unspecified) [Lovastatin], the figure is 86.6; as for `C#CC1(OC(C)=O)CCC2C3CCC4=CC(OC(C)=O)CCC4C3CCC21C` (stereo unspecified) [Ethynodiol diacetate], 94.8. On the same count and under the same terms, as for `CC1(O)CC(c2nc(-c3ccc4ccc(-c5ccccc5)nc4c3)c3c(N)nccn23)C1` (stereo unspecified) [Linsitinib], the figure is 104; as for `CCCCOc1cc(C(=O)NCCN(CC)CC)c2ccccc2n1` [Dibucaine], 87.9.

Regarding `C#CC1(O)CCC2C3CCc4cc(O)ccc4C3CCC21C` (stereo unspecified) [Ethinyl Estradiol], the cell viability was determined as 84.5.

For `CCC(C)n1ncn(-c2ccc(N3CCN(c4ccc(OCC5COC(Cn6cncn6)(c6ccc(Cl)cc6Cl)O5)cc4)CC3)cc2)c1=O` (stereo unspecified) [Itraconazole], the cell viability worked out at 65.8. The same measure, in the same setting: with `O=C1C(CCC(O)c2ccc(F)cc2)C(c2ccc(O)cc2)N1c1ccc(F)cc1` (stereo unspecified) [Ezetimibe] the figure was 75.4.
